Test results from paper PMC9911399, “Two distinct binding modes provide the RNA-binding protein RbFox with extraordinary sequence specificity”.
Positions count from the first letter of the chain named. Some of the results follow.

T1: RBFOX1 RRM (Homo sapiens, UniProt Q9NWB1 109-208)
T1 sequence: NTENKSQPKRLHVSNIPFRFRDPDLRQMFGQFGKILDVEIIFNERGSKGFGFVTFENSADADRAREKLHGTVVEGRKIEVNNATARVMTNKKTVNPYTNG

B1: AGGGGAU (DNA:RNA)
RNA: GGGAGACCGGAAUUCAGAUUGUCCAGGGGAUUUAAAUCCCGUCGUAGCCACCA
DNA 1: CAATCTGAATTCCGGTCTCCC
DNA 2: TGGTGGCTACGACGGGATT
B2: AGCCGGU (DNA:RNA)
RNA: B1 RNA with G27C, G28C, A30G
DNA 1: CAATCTGAATTCCGGTCTCCC
DNA 2: TGGTGGCTACGACGGGATT
B3: AUGCCGG (DNA:RNA)
RNA: B1 RNA with G26U, G28C, G29C, A30G, U31G
DNA 1: CAATCTGAATTCCGGTCTCCC
DNA 2: TGGTGGCTACGACGGGATT
B4: UUUCGAU (DNA:RNA)
RNA: B1 RNA with A25U, G26U, G27U, G28C
DNA 1: CAATCTGAATTCCGGTCTCCC
DNA 2: TGGTGGCTACGACGGGATT
B5: UGUCCAC (DNA:RNA)
RNA: B1 RNA with A25U, G27U, G28C, G29C, U31C
DNA 1: CAATCTGAATTCCGGTCTCCC
DNA 2: TGGTGGCTACGACGGGATT
B6: CUCCACA (DNA:RNA)
RNA: GGGAGACCGGAAUUCAGAUUGUCCCUCCACAUUAAAUCCCGUCGUAGCCACCA
DNA 1: CAATCTGAATTCCGGTCTCCC
DNA 2: TGGTGGCTACGACGGGATT
B7: UAUUCGA (DNA:RNA)
RNA: B6 RNA with C25U, U26A, C27U, C28U, A29C, C30G
DNA 1: CAATCTGAATTCCGGTCTCCC
DNA 2: TGGTGGCTACGACGGGATT
B8: GUGUUGC (DNA:RNA)
RNA: B1 RNA with A25G, G26U, G28U, G29U, A30G, U31C
DNA 1: CAATCTGAATTCCGGTCTCCC
DNA 2: TGGTGGCTACGACGGGATT
B9: AACUGUC (DNA:RNA)
RNA: B1 RNA with G26A, G27C, G28U, A30U, U31C
DNA 1: CAATCTGAATTCCGGTCTCCC
DNA 2: TGGTGGCTACGACGGGATT
B10: AUAAAGC (DNA:RNA)
RNA: B6 RNA with C25A, C27A, C28A, C30G, A31C
DNA 1: CAATCTGAATTCCGGTCTCCC
DNA 2: TGGTGGCTACGACGGGATT
B11: UCUUUGG (DNA:RNA)
RNA: GGGAGACCGGAAUUCAGAUUGUCCUCUUUGGUUAAAUCCCGUCGUAGCCACCA
DNA 1: CAATCTGAATTCCGGTCTCCC
DNA 2: TGGTGGCTACGACGGGATT
B12: UCGCGGA (DNA:RNA)
RNA: B11 RNA with U27G, U28C, U29G, G31A
DNA 1: CAATCTGAATTCCGGTCTCCC
DNA 2: TGGTGGCTACGACGGGATT
B13: CGCGUAA (DNA:RNA)
RNA: B1 RNA with A25C, G27C, G29U, U31A
DNA 1: CAATCTGAATTCCGGTCTCCC
DNA 2: TGGTGGCTACGACGGGATT
B14: CAAACUG (DNA:RNA)
RNA: B6 RNA with U26A, C27A, C28A, A29C, C30U, A31G
DNA 1: CAATCTGAATTCCGGTCTCCC
DNA 2: TGGTGGCTACGACGGGATT
B15: CGAAAUU (DNA:RNA)
RNA: B1 RNA with A25C, G27A, G28A, G29A, A30U
DNA 1: CAATCTGAATTCCGGTCTCCC
DNA 2: TGGTGGCTACGACGGGATT
B16: CUCGGGG (DNA:RNA)
RNA: B6 RNA with C28G, A29G, C30G, A31G
DNA 1: CAATCTGAATTCCGGTCTCCC
DNA 2: TGGTGGCTACGACGGGATT
B17: GUCAUAC (DNA:RNA)
RNA: B6 RNA with C25G, C28A, A29U, C30A, A31C
DNA 1: CAATCTGAATTCCGGTCTCCC
DNA 2: TGGTGGCTACGACGGGATT
B18: UUUGACA (DNA:RNA)
RNA: B6 RNA with C25U, C27U, C28G
DNA 1: CAATCTGAATTCCGGTCTCCC
DNA 2: TGGTGGCTACGACGGGATT
B19: CCCUCGA (DNA:RNA)
RNA: B6 RNA with U26C, C28U, A29C, C30G
DNA 1: CAATCTGAATTCCGGTCTCCC
DNA 2: TGGTGGCTACGACGGGATT
B20: GAUCUAG (DNA:RNA)
RNA: B11 RNA with U25G, C26A, U28C, G30A
DNA 1: CAATCTGAATTCCGGTCTCCC
DNA 2: TGGTGGCTACGACGGGATT
B21: UAAUAUU (DNA:RNA)
RNA: B11 RNA with C26A, U27A, U29A, G30U, G31U
DNA 1: CAATCTGAATTCCGGTCTCCC
DNA 2: TGGTGGCTACGACGGGATT
B22: UUGUUGU (DNA:RNA)
RNA: B11 RNA with C26U, U27G, G31U
DNA 1: CAATCTGAATTCCGGTCTCCC
DNA 2: TGGTGGCTACGACGGGATT
B23: CUACUUU (DNA:RNA)
RNA: B6 RNA with C27A, A29U, C30U, A31U
DNA 1: CAATCTGAATTCCGGTCTCCC
DNA 2: TGGTGGCTACGACGGGATT
B24: AACACUG (DNA:RNA)
RNA: B1 RNA with G26A, G27C, G28A, G29C, A30U, U31G
DNA 1: CAATCTGAATTCCGGTCTCCC
DNA 2: TGGTGGCTACGACGGGATT
B25: UGCCUAC (DNA:RNA)
RNA: B1 RNA with A25U, G27C, G28C, G29U, U31C
DNA 1: CAATCTGAATTCCGGTCTCCC
DNA 2: TGGTGGCTACGACGGGATT
B26: ACAAACC (DNA:RNA)
RNA: B6 RNA with C25A, U26C, C27A, C28A, A31C
DNA 1: CAATCTGAATTCCGGTCTCCC
DNA 2: TGGTGGCTACGACGGGATT
B27: UAGAAUC (DNA:RNA)
RNA: B1 RNA with A25U, G26A, G28A, G29A, A30U, U31C
DNA 1: CAATCTGAATTCCGGTCTCCC
DNA 2: TGGTGGCTACGACGGGATT
B28: ACAAGUG (DNA:RNA)
RNA: B1 RNA with G26C, G27A, G28A, A30U, U31G
DNA 1: CAATCTGAATTCCGGTCTCCC
DNA 2: TGGTGGCTACGACGGGATT
B29: GCGCGUG (DNA:RNA)
RNA: B1 RNA with A25G, G26C, G28C, A30U, U31G
DNA 1: CAATCTGAATTCCGGTCTCCC
DNA 2: TGGTGGCTACGACGGGATT
B30: CACCUUC (DNA:RNA)
RNA: B6 RNA with U26A, A29U, C30U, A31C
DNA 1: CAATCTGAATTCCGGTCTCCC
DNA 2: TGGTGGCTACGACGGGATT
B31: GGGAUUC (DNA:RNA)
RNA: B1 RNA with A25G, G28A, G29U, A30U, U31C
DNA 1: CAATCTGAATTCCGGTCTCCC
DNA 2: TGGTGGCTACGACGGGATT

Target: T1, RBFOX1 RRM
Assay: EMSA; HiTS-Eq, 1 nM pool, 10 min; buffer printed only for the single-RNA assays: 10 mM Tris pH 7.5, 150 mM NaCl, 3.4 mM EDTA, 0.001% NP-40, 30 C
Details: tags: His6 N-terminal (pET28a); label: 5' 32P
Method in brief: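 These values rest on relative association constants, computed from read-count changes of each RNA species versus the control reaction and normalised to the cognate motif. Reads came from free RNA recovered by 8% native PAGE after purified RbFox RRM (wild type or mutant) at increasing concentrations was equilibrated for 10 min in 50 µL with 1 nM of a 5′-radiolabelled pool with 7 randomized nucleotides and DNA-annealed flanks.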

Binder | binding signal
B1 | 0.0169 KA relative to UGCAUGU
B2 | 0.00205 KA relative to UGCAUGU
B3 | 0.0153 KA relative to UGCAUGU
B4 | 0.0217 KA relative to UGCAUGU
B5 | 0.00727 KA relative to UGCAUGU
B6 | 0.00143 KA relative to UGCAUGU
B7 | 0.0155 KA relative to UGCAUGU
B8 | 0.0138 KA relative to UGCAUGU
B9 | 0.00948 KA relative to UGCAUGU
B10 | 0.00101 KA relative to UGCAUGU
B11 | 0.0222 KA relative to UGCAUGU
B12 | 0.00548 KA relative to UGCAUGU
B13 | 0.0027 KA relative to UGCAUGU
B14 | 0.00407 KA relative to UGCAUGU
B15 | 0.00438 KA relative to UGCAUGU
B16 | 0.00169 KA relative to UGCAUGU

Binder | binding signal
B17 | 0.00477 KA relative to UGCAUGU
B18 | 0.0052 KA relative to UGCAUGU
B19 | 0.00352 KA relative to UGCAUGU
B20 | 0.00899 KA relative to UGCAUGU
B21 | 0.004 KA relative to UGCAUGU
B22 | 0.0241 KA relative to UGCAUGU
B23 | 0.00393 KA relative to UGCAUGU
B24 | 0.00435 KA relative to UGCAUGU
B25 | 0.0123 KA relative to UGCAUGU
B26 | 0.00131 KA relative to UGCAUGU
B27 | 0.015 KA relative to UGCAUGU
B28 | 0.00802 KA relative to UGCAUGU
B29 | 0.0295 KA relative to UGCAUGU
B30 | 0.00139 KA relative to UGCAUGU
B31 | 0.044 KA relative to UGCAUGU
